Data reported in PMC6919601, “Identification of Plasmodium dipeptidyl aminopeptidase allosteric inhibitors by high throughput screening” (PLoS ONE, 2019).
Hit rate of the full screen: of about 110,000 compounds, about 230 (0.21%) showed an effect of 50% or more. The list shows a part of the results.

Target: DPAP1 (Plasmodium falciparum, UniProt Q8IIJ9)
Experiment: primary screen, percent inhibition; read by cleavage of a fluorogenic dipeptide substrate; higher = more effect of the substance
Set-up: species or system P. falciparum D10 trophozoite lysates; single well
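Note: 30 min substrate incubation versus DMSO and 10 µM JCP410 controls.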

Chain of DPAP1 (Q8IIJ9 whole entry, looked up): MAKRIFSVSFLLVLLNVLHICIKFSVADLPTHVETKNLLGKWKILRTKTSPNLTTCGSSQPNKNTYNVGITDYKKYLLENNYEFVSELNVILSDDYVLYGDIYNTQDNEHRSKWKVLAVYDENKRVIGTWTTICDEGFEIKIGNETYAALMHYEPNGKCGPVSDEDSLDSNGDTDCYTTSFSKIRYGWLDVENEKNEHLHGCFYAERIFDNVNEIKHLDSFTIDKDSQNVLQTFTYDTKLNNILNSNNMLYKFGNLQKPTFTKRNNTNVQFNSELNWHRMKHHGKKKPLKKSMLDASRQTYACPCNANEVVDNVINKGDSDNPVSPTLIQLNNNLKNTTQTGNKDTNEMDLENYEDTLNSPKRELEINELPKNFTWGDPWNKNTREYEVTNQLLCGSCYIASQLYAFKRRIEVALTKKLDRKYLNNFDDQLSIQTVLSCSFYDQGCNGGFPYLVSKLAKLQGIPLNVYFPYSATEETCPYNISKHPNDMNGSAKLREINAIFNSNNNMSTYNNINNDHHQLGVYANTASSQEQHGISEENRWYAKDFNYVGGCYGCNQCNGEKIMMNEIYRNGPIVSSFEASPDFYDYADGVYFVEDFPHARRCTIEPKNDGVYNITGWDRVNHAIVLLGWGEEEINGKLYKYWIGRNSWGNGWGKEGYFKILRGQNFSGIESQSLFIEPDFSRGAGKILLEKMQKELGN

Point of comparison: CN(CCCNC(=O)c1ccc(CS(=O)(=O)Cc2cccc(Cl)c2)o1)C1CCCCC1, “% Inhibition @ 10 uM” value 3.93%. Against it:
- Clc1ccc2[nH]c3ccccc3c2c1 — lower, -2.41%
- Cc1ccc(Cl)cc1-n1nnnc1C(c1ccccc1)N(C)C (stereo not shown) — lower, -2.81%
- Oc1ncnc2nc(-c3ccccc3)c(-c3ccccc3)nc12 — lower, 0.944%
- Cc1ccccc1CSCC(=O)NC1CC2CCC1C2 (stereo not shown) — lower, -0.968%
- CC1C(=O)C(C)C(c2ccccc2O)NC1c1ccccc1O (stereo not shown) — lower, 0.587%
- CC(C)COC(=O)C1=CN=C2SCCC(=O)N2C1c1ccccc1Cl (stereo not shown) — lower, -1.17%
- Cc1ccc2cc3cc(C(=O)N4CCC(C)CC4)oc3nc2c1 — lower, -1.54%
- CCOc1ccc(CN(C(=O)c2cc(=O)c3ccc(C)cc3o2)C2CCS(=O)(=O)C2)cc1 (stereo not shown) — lower, -3.24%
- COc1ccc(N(CC(=O)N2CCN(c3ccccc3)CC2)S(=O)(=O)c2ccccc2)c(OC)c1 — lower, 2.92%
- COc1ccc(N(CC(=O)Nc2ccc(Cl)cc2)S(=O)(=O)c2ccc(NC(C)=O)cc2)cc1 — higher, 8.64%
- CCCCN(C)CCNC(=O)c1cc2c(O)nc3ccccc3c2n1C — lower, -3.23%
- CC1CCN(S(=O)(=O)c2ccc(NC(=O)c3cccc(F)c3)cc2)CC1 — lower, -3.21%
- CCCCNS(=O)(=O)c1ccc2nc(-c3cccnc3)cc(C(=O)NC(C)CC)c2c1 (stereo not shown) — lower, -3.21%
- CC(Oc1ccc(Cl)cc1Cl)C(=O)Nc1ccc(S(=O)(=O)N2CCCCC2)cc1 (stereo not shown) — lower, -0.95%
- Cc1cc(C)c2oc(C(=O)NCc3ccncc3)cc(=O)c2c1 — lower, -5.08%
- Cc1cc(/C=C2\NC(=O)N(Cc3ccc(Cl)cc3)C2=O)c(C)n1-c1ccc(C#N)cc1 — lower, 2.17%
- Cc1ccccc1-c1nc(SCC(=O)N2CCCC2)n2[nH]c(=O)cc2n1 — higher, 5.78%
- COc1ccc(S(=O)(=O)Nc2cccc(C)c2C)cc1 — lower, 2.22%
- NC(=O)c1c(NC(=O)c2ccccc2F)sc2c1CCCC2 — lower, 2.32%
- COc1cc(CN(C(=S)NCC(=O)NC2CCCC2)C2CCCC2)cc(OC)c1OC — lower, 1.27%
- CCN1CCCC(Nc2ccnc3cc4ccccc4cc23)C1 (stereo not shown) — lower, 1.7%
- Cc1cc(C)c(NC(=O)CN2C(=O)c3ccccc3S2(=O)=O)c(C)c1 — higher, 9.94%
- O=C(CC(c1ccc(F)cc1)c1ccco1)N1CCOCC1 (stereo not shown) — lower, -10.8%
- O=C(NCc1ccc(-n2cccc2)cc1)c1cccc(F)c1 — lower, 1.32%
- c1ccc(-c2csc(-c3nc(-c4ccccc4)cs3)n2)cc1 — lower, 1.9%
- COc1cc(C(=O)Nc2ccc(NC(=O)c3cccc(C)c3)cc2)cc(OC)c1OC — lower, -1.57%
- CCOC(=O)c1c(C)nc(C)c(C(=O)OCC)c1-c1ccc(OC)cc1 — lower, -1.96%
- CC(NC(=O)c1cc2c(s1)CS(=O)(=O)C2)c1ccccc1 (stereo not shown) — lower, -12.1%
- CN(C)c1ccc([C@H](N[C@@H](CC2CCCCC2)C(=O)NC2(C#N)CC2)C(F)(F)F)cc1 — lower, 1.61%
- O=C(NCCc1c[nH]c2ccccc12)c1ccc(C(F)(F)F)cc1 — lower, -1.22%
- Cc1ccc(Nc2nc(-c3ccc(S(=O)(=O)N4CCOCC4)cc3)cs2)cc1 — lower, -0.693%
- Cc1ccc(NC2=NC(=O)C(CC(=O)Nc3ccccc3F)S2)cc1Cl (stereo not shown) — lower, -1.38%
- N#CCNC(=O)[C@H](COCc1ccccc1)NC(=O)c1ccccc1 — lower, 2.86%
- C=CCc1ccccc1OCC(O)CN1CCC(C)CC1 (stereo not shown) — lower, 3.01%
- CC1(C)CC2=NC3=C(C(=O)c4ccccc43)C(c3ccccc3C(F)(F)F)C2=C(O)C1 (stereo not shown) — lower, 0.9%
- CCc1ccc(C(=O)O/N=C(\N)c2ccccn2)cc1 — higher, 3.94%
- CCOC(=O)c1c(Cc2cccc(C(F)(F)F)c2)c[nH]c1C — lower, 2.77%
- Cc1onc(-c2ccccc2)c1C(=O)Nc1cccc(NC(=O)c2c(-c3ccccc3)noc2C)c1 — lower, -1.42%
- CC1CCN(CC(O)COc2ccc(C34CC5CC(CC(C5)C3)C4)cc2)CC1 (stereo not shown) — higher, 5.61%
- CC(CCc1ccccc1)NC(=O)c1cc2c(s1)CS(=O)(=O)C2 (stereo not shown) — lower, -7.3%
- COc1ccccc1CNC(=O)c1cccs1 — lower, -2.36%
- c1ccc2c(c1)COC(CN1CCOCC1)OC2 — lower, -4.67%
- O=C(NCCCn1ccnc1)/C(=C/c1cccs1)NC(=O)c1ccco1 — lower, 0.484%
- CCc1nn(CC(=O)NCC2CCCO2)c(=O)c2cc3ccccc3n12 (stereo not shown) — lower, 3%
- COc1ccc(C(=N)NOC(=O)CCc2ccccc2)cc1 — lower, -1.4%
- CCOc1ccc(OCC)c(S(=O)(=O)n2cc(C)nc2CC)c1 — higher, 6.51%
- COC(=O)c1ccc(CN2CCC(Cc3ccccc3)CC2)cc1 — lower, -0.0648%
- O=C(CN1CCCCC1)N1CCN(c2ccc3ccccc3n2)CC1 — lower, -6.83%
- Clc1ccc(OCCCN2CCCC2)cc1 — lower, 3.35%
- CCOc1ccc(C(CC(=O)O)n2cnnn2)cc1OC (stereo not shown) — lower, 2.99%
- Cc1ccc(C(=O)NC(=O)CSc2ncccc2C(=O)O)cc1 — higher, 5.49%
- CC(C)n1cnc2cc(NC(=O)c3ccco3)ccc21 — lower, -3.45%
- O=C(NCc1cccnc1)c1ccc(CS(=O)(=O)c2ccc(Br)cc2)o1 — lower, 2.14%
- OCCN(CCO)Cc1ccccc1 — lower, -0.603%
- CC(NC(=O)Cn1ncc2ccsc2c1=O)c1ccc2c(c1)OCCO2 (stereo not shown) — lower, -10.4%
- O=C(Cn1ncc2c1-c1ccccc1OC2)N1CCN(C(=O)c2ccco2)CC1 — lower, 0.981%
- O=c1c2cnc(NCc3cccnc3)nc2ccn1Cc1cccnc1 — lower, -2.83%
- O=c1cc(-c2ccccc2)nc2n1N=C(c1ccccc1)C2 — lower, -2.78%
- CCC(C(=O)NCCc1ccco1)n1nc(C)c2sc3ccccc3c2c1=O (stereo not shown) — lower, 1.63%
- CCCC(=O)Nc1ccc(Cl)c(NC(=O)c2ccc3ccccc3c2)c1 — lower, -0.469%
- COc1ccc(S(=O)(=O)N(C)CC(=O)Nc2cccc(F)c2)cc1 — higher, 4.22%
- O=P1(O)COc2ccccc2OC1 — lower, -0.178%
- Cc1ccc(CSc2nc3ccncc3n2Cc2ccc(C(=O)N3CCN(C)CC3)cc2)cc1 — higher, 19.8%
